In PubChem BioAssay (NCI):
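Cultured in 96-well plates, cells were exposed to test compound for 48 hours across five concentrations. Here, GI50 denotes the concentration required for 50% inhibition of growth.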 For part of its entries the source gives two or more results. The other results are left out here. The source may hold further records. For some of these results: The tests behind the records often covered other concentration ranges, which the source does not state; a value can be the end of its range. A tag in brackets gives the origin of a value. Letters count within one entry. For some of these results: The values listed for one entry repeat one measurement across runs, samples, wells, individuals or studies.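 TGI is the concentration that stops growth completely.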

Tests used:
Assay in all cases: inhibition of tumour cell growth, NCI panel, 48 h
SF-539 CNS = system: SF-539 CNS
SK-OV-3 ovarian = system: SK-OV-3 ovarian
OVCAR-8 ovarian = system: OVCAR-8 ovarian
SN12C renal = system: SN12C renal
CAKI-1 renal = system: CAKI-1 renal
OVCAR-3 ovarian = system: OVCAR-3 ovarian
NCI/ADR-RES ovarian = system: NCI/ADR-RES ovarian
ACHN renal = system: ACHN renal
SK-MEL-2 melanoma = system: SK-MEL-2 melanoma
HOP-92 NSCLC = system: HOP-92 NSCLC
TK-10 renal = system: TK-10 renal
MOLT-4 leukemia = system: MOLT-4 leukemia
SNB-75 CNS = system: SNB-75 CNS
PC-3 prostate = system: PC-3 prostate
UO-31 renal = system: UO-31 renal
LOX IMVI melanoma = system: LOX IMVI melanoma
HOP-62 NSCLC = system: HOP-62 NSCLC
SF-295 CNS = system: SF-295 CNS
OVCAR-4 ovarian = system: OVCAR-4 ovarian
DU-145 prostate = system: DU-145 prostate
NCI-H226 lung = system: NCI-H226 lung
MALME-3M melanoma = system: MALME-3M melanoma
HCC-2998 colon = system: HCC-2998 colon
SF-268 CNS = system: SF-268 CNS
M14 melanoma = system: M14 melanoma
HT29 colon = system: HT29 colon
NCI-H522 lung = system: NCI-H522 lung
OVCAR-5 ovarian = system: OVCAR-5 ovarian
SK-MEL-28 melanoma = system: SK-MEL-28 melanoma
EKVX NSCLC = system: EKVX NSCLC
RXF 393 renal = system: RXF 393 renal
786-0 renal = system: 786-0 renal
U251 CNS = system: U251 CNS

CN1CCN(c2ccc3[nH]c(C4=C(O)c5nc(CCl)n(C)c5C(=O)C4=O)nc3n2)CC1
TGI (SF-539 CNS): > 50 µM and 4.8 µM

CN1N=C(N)c2cn(C3OC(COP(=O)(O)O)C(O)C3O)c3ncnc1c23 (stereo unspecified)
TGI (SK-OV-3 ovarian): 86.1 µM, 1.65 mM, 32 µM | TGI (OVCAR-8 ovarian): 19.1, 41.9, 422, 46.3 µM | TGI (SN12C renal): 69.2 µM, 159 µM, 1.65 mM, 174 µM | TGI (CAKI-1 renal): 154 µM, 1.65 mM, 11.7 µM | TGI (OVCAR-3 ovarian): 117 µM, 1.65 mM, 664 µM | TGI (NCI/ADR-RES ovarian): 47 µM, 1.65 mM [1 test] and 108 µM [mean of 11 tests] and 189 µM [mean of 4 tests] | TGI (ACHN renal): 93.2 µM, 1.65 mM, 251 µM | TGI (SK-MEL-2 melanoma): 77.1 µM, 64 µM, 1.16 mM, 131 µM | TGI (HOP-92 NSCLC): 9.13, 5.53, 53.7, 1.36 µM | TGI (TK-10 renal): 137 µM, 1.65 mM, 111 µM | TGI (MOLT-4 leukemia): 71.6 µM, 1.65 mM, 285 µM | TGI (SNB-75 CNS): 34.7 µM, 85 µM, 149 µM [1 test] and 162 µM [mean of 9 tests] | TGI (PC-3 prostate): 95.4 µM, 1.65 mM, 109 µM | TGI (UO-31 renal): 130 µM, 1.65 mM, 66.8 µM | TGI (LOX IMVI melanoma): 24.6, 32.3, 167, 289 µM | TGI (HOP-62 NSCLC): 63.2 µM, 390 µM, 1.65 mM, 1.67 mM | TGI (SF-295 CNS): 379 µM, 1.65 mM, > 5 mM | TGI (OVCAR-4 ovarian): 84.2 µM, 1.65 mM, 115 µM | TGI (DU-145 prostate): 36.6 µM, 95.6 µM, 1.36 mM, 183 µM | TGI (NCI-H226 lung): 1.65 mM [1 test] and 170 µM [mean of 3 tests] and 111 µM [mean of 8 tests]

CC(C)(O)/C=C/C(=O)[C@](C)(O)[C@H]1[C@H](O)C[C@@]2(C)[C@@H]3CC=C4[C@@H](C=C(O)C(=O)C4(C)C)[C@]3(C)C(=O)C[C@]12C
GI50 (SK-OV-3 ovarian): 357 nM [sample A, mean of 3 tests] and < 10 nM [sample B, 1 test] and 933 nM [sample B, mean of 4 tests] | TGI (SK-OV-3 ovarian): > 4.42 µM [sample A, mean of 3 tests] and 66.9 nM [sample B, 1 test] and 5.53 µM [sample B, mean of 4 tests] | TGI (SN12C renal): > 10 µM [sample A, mean of 4 tests] and 68.4 nM [sample B, 1 test] and 7.98 µM [sample B, mean of 5 tests] | TGI (MALME-3M melanoma): 1.5 µM [sample A] and 5.1 µM, 95.6 nM [sample B] | TGI (OVCAR-3 ovarian): 1.18 µM [sample A] and 3.99 µM, 69.9 nM [sample B] | TGI (HCC-2998 colon): > 3.96 µM [sample A, mean of 3 tests] and 385 nM [sample B, 1 test] and 8.9 µM [sample B, mean of 5 tests] | TGI (SF-268 CNS): 665 nM [sample A] and 2.7 µM, 48.5 nM [sample B] | TGI (ACHN renal): 822 nM [sample A, mean of 4 tests] and 10.5 µM [sample B, 1 test] and 3.92 µM [sample B, mean of 5 tests] | TGI (M14 melanoma): 3.41 µM [sample A] and 6.66 µM, 17 nM [sample B] | TGI (HOP-92 NSCLC): 457 nM [sample A, mean of 4 tests] and 51 nM [sample B, 1 test] and 1.72 µM [sample B, mean of 5 tests] | TGI (HT29 colon): > 7 µM [sample A] and 137 nM [sample B] | TGI (SF-539 CNS): 574 nM [sample A, mean of 4 tests] and < 10 nM [sample B, 1 test] and 1.08 µM [sample B, mean of 5 tests] | TGI (SNB-75 CNS): 470 nM [sample A, mean of 3 tests] and < 10 nM [sample B, 1 test] and 1.98 µM [sample B, mean of 4 tests] | TGI (NCI-H522 lung): 1.02 µM [sample A, mean of 3 tests] and 76.3 nM [sample B, 1 test] and 3.31 µM [sample B, mean of 4 tests] | TGI (OVCAR-5 ovarian): > 10 µM [sample A] and 766 nM [sample B] | TGI (UO-31 renal): 395 nM [sample A, mean of 4 tests] and < 10 nM [sample B, 1 test] and 3.74 µM [sample B, mean of 5 tests] | GI50 (SK-MEL-28 melanoma): 209 nM [sample A, mean of 4 tests] and < 10 nM [sample B, 1 test] and 624 nM [sample B, mean of 5 tests] | TGI (HOP-62 NSCLC): 1.11 µM [sample A, mean of 4 tests] and 35.6 nM [sample B, 1 test] and 3.65 µM [sample B, mean of 5 tests] | TGI (SF-295 CNS): 806 nM [sample A, mean of 4 tests] and 52.6 nM [sample B, 1 test] and 7.13 µM [sample B, mean of 5 tests] | TGI (EKVX NSCLC): > 4.88 µM [sample A] and 6.27 µM, < 10 nM [sample B] | TGI (RXF 393 renal): 466 nM [sample A] and 1.24 µM, 18.9 nM [sample B] | TGI (786-0 renal): 463 nM [sample A, mean of 3 tests] and 64.9 nM [sample B, 1 test] and 2.5 µM [sample B, mean of 5 tests] | TGI (U251 CNS): 663 nM [sample A, mean of 4 tests] and 50.8 nM [sample B, 1 test] and 2.39 µM [sample B, mean of 5 tests] | TGI (NCI-H226 lung): 683 nM [sample A, mean of 4 tests] and 51.3 nM [sample B, 1 test] and 2.02 µM [sample B, mean of 5 tests]

C[C@H](NC(=O)c1c(N)nn2cccnc12)c1cc2cccc(C#Cc3cnn(C)c3)c2c(=O)n1-c1ccccc1
GI50 (MALME-3M melanoma): > 10 µM [sample A, 1 test] and 722 nM [sample B, 1 test]
